In PubChem BioAssay AID1347417 (National Center for Advancing Translational Sciences (NCATS), 2020):
The campaign covered roughly 120,000 compounds. About 5,300 (4.4%) were called active. This list was built around the results that the source calls inconclusive (neither active nor inactive); the mix of calls is not that of the screen. Calls come from the whole dose curve; as a rule, active = well fitted inhibition curve with a large enough effect; inconclusive = small, poorly fitted or top-dose-only effect; inactive = no such curve, though single readings can be large or run the other way. Potencies of inconclusive entries are doubtful fits and often do not repeat.

test: qHTS Primary assay for Inhibitors of Plasmodium falciparum Dd2 growth in vitro; note: nearly all actives have a fitted effect of over 65% in size;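 for activity, negative = inhibition: plate controls were DMSO vehicle for no effect and reference drug for full effect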; settings: P. falciparum Dd2 growth, SYBR Green, 72 h; activity, negative = inhibition: at 28.9 µM (top of the series) unless noted; series mostly up to 28.9 µM
How it was run: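 Infected erythrocytes (Dd2, 0.3% parasitemia, 2.5% hematocrit final) are added to compound in RPMI-1640/Albumax II medium, grown 72 h at 37C in low oxygen, then lysed with saponin/Triton-X containing SYBR Green and read by fluorescence.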
Potency is the fitted concentration of half-maximal effect; tags give direction and shape of the fitted curve.

Row | Compound | activity, negative = inhibition | Potency | outcome
1 | Cc1ncc2c(c1CNC(=O)Cc1ccc(C(F)(F)F)cc1)CCNC2 | inactive: -28% | – | –
2 | CCCN(Cc1ccco1)C(=O)C1CCC(=O)N(CC2CCCCC2)C1 (stereo unspecified) | – | inconclusive: 10 µM [inhibitor, partial curve, poor fit] | –
3 | Cc1ccc2c(CC(=O)Nc3ccc(S(=O)(=O)N4CCCC(C)C4)cc3)coc2c1 (stereo unspecified) | – | inconclusive: 17.8 µM [inhibitor, single point] | –
4 | COCCn1nnnc1C1CC2(CCOCC2)C(=O)N1CCc1ccc(OC)c(OC)c1 (stereo unspecified) | inactive: 3.48% | – | –
5 | O=C(NCCc1ccccc1)c1ccc2c(c1)CCN2S(=O)(=O)c1ccc(Cl)cc1 | – | inconclusive: 10 µM [inhibitor, single point] | –
6 | COCC1CN(Cc2ccccc2F)CC12CCNCC2 (stereo unspecified) | – | inconclusive: 17.8 µM [inhibitor, single point] | –
7 | Cc1ccc(Cl)cc1NC(=O)c1cc(S(=O)(=O)N2CCOCC2)cn1C | – | inconclusive: 0.0562 µM [inhibitor, full curve] | –
8 | COc1ccc(-c2nc(-c3ccccc3)nc3c2CN(C(=O)c2ccc(C(F)(F)F)cc2)CC3)cc1 | – | active: 8.91 µM | –
9 | COc1ccc(Cl)cc1NC(=O)CSc1nc(=O)[nH]c2c1CCC2 | – | inconclusive: 10 µM [inhibitor, single point] | –
10 | Cc1ccccc1OCC(=O)Nc1ccccc1C(=O)OCc1cc(=O)n2nc(C3CC3)sc2n1 | inactive: -2.89% | – | –
11 | CCOc1ccccc1C(=O)Nc1cccc(-c2nnc3n2CCCC3)c1 | – | active: 5.01 µM | –
12 | CC(C)CCNC(=O)C1CCC(CNS(=O)(=O)c2cccc3nsnc23)CC1 (stereo unspecified) | – | active: 3.16 µM | –
13 | O=C1OCCCN1CCNc1ccc(-c2nc(-c3ccccc3F)no2)cn1 | – | – | inactive
14 | Cc1ccccc1OCCSc1nc2ccc(NC(=O)c3ccco3)cc2s1 | – | active: 2.24 µM | –
15 | CNC(=O)[C@@H]1C[C@@H](N)CN1C(=O)c1cnn(-c2ccccc2OC)c1 | inactive: 11.1% | – | –
16 | O=C(c1nccc2ccccc12)N1CCC(N2C(=O)C(OCC3CC3)C23CCCCC3)CC1 (stereo unspecified) | – | inconclusive: 17.8 µM [inhibitor, single point] | –
17 | O=C1Nc2ccccc2C1Cc1ccc(Br)cc1 (stereo unspecified) | – | inconclusive: 20 µM [inhibitor, single point] | –
18 | Cc1nn2c(c1-c1ccccc1Oc1ccccc1)N([S+](=O)([O-])c1cccnc1)CCC2 | – | inconclusive: 7.94 µM [inhibitor, partial curve, poor fit] | –
19 | CN(Cc1cccs1)Cc1cccn1C | – | inconclusive: 11.2 µM [inhibitor, partial curve, poor fit] | –
20 | CC(C)CNC(=O)CN1CN(c2ccccc2)C2(CCN(C(=O)NC3CCCCC3)CC2)C1=O | – | active: 1.58 µM | –
21 | CCCNC(=O)Cc1csc2nc(C)c(-c3cc(C)n(-c4ccc(C(C)C)cc4)n3)c(=O)n12 | – | inconclusive: 11.2 µM [inhibitor, partial curve] | –
22 | COCCNC(=O)CCCn1c(SCc2ccccc2C)nc2c(sc3ccccc32)c1=O | – | inconclusive: 3.55 µM [inhibitor, single point] | –

Row | Compound | activity, negative = inhibition | Potency | outcome
23 | CCn1cc(/C=C(\NC(=O)c2ccccc2Cl)C(=O)NCCCn2ccnc2)c2ccccc21 | – | inconclusive: 17.8 µM [inhibitor, single point] | –
24 | COc1cccc(N2C(=O)NC(=NC3CCCCC3)C23CCCN(CCC(C)C)C3)c1 (stereo unspecified) | – | active: 11.2 µM | –
25 | Cc1ccc(CNC(=O)Cn2ccn(-c3ccc(F)c(F)c3)c(=O)c2=O)cc1 | inactive: 11.3% | – | –
26 | Cc1nc(-c2ccccc2)cc([C@H]2CN3CC[C@H]2C[C@@H]3CNS(C)(=O)=O)n1 | – | inconclusive: 7.94 µM [inhibitor, partial curve, poor fit] | –
27 | COc1ccc(CC(=O)N2Cc3ccccc3CC3(CCCN3C)C2)cc1 (stereo unspecified) | – | inconclusive: 0.501 µM [inhibitor, full curve, poor fit] | –
28 | Cc1ccc(C(=O)N2CC(c3nnc(-c4ccncc4)o3)C3(CCOCC3)C2)c(C)c1 (stereo unspecified) | inactive: -10.8% | – | –
29 | Cc1c(CN2CCC(N(C(=O)NCCc3ccccc3)C3CCOCC3)CC2)cnn1C | inactive: -6.45% | – | –
30 | O=S1(=O)c2ccccc2N(Cc2ccc(F)cc2)c2ccccc21 | inconclusive: -47.5% [inhibitor] [at 5.79 µM] | – | –
31 | COCCOC1CCOC2(CCN(C(=O)C3(c4ccc(OC)cc4)CC3)CC2)C1 (stereo unspecified) | – | inconclusive: 12.6 µM [inhibitor, single point] | –
32 | Cc1ccccc1CC(=O)N1CCN(c2cc(-c3ccc(Cl)cc3)[nH]n2)CC1 | – | inconclusive: 11.2 µM [inhibitor, partial curve, poor fit] | –
33 | O=C(NCCC1CCCCC1)c1c[nH]c2ncccc12 | – | inconclusive: 11.2 µM [inhibitor, partial curve, poor fit] | –
34 | CNC(=O)CCn1ncc2cc(OCc3ccccc3-c3cc(F)cc(OC)c3)ccc21 | – | inconclusive: 2.51 µM [inhibitor, partial curve, poor fit] | –
35 | Cc1ccc(C)c(NC(=O)Cn2c(N3CCC(C)CC3)nc(C)cc2=O)c1 | inactive: -6.36% | – | –
36 | COc1ccc(Cl)cc1NC(=O)C[C@H]1NC(=O)c2ccccc2NC1=O | inactive: -22.5% | – | –
37 | CCc1ccc(C(=O)c2cn(CC(=O)Nc3cc(OC)cc(OC)c3)c3ccc(CC)cc3c2=O)cc1 | inactive: 21.6% | – | –
38 | COc1ccccc1CCC(=O)Nc1cccc(-c2nnc3n2CCCC3)c1 | – | inconclusive: 7.94 µM [inhibitor, partial curve, poor fit] | –
39 | Cc1ccc(CN2CCCCCCNC(=O)[C@@H]3C[C@@H](C(=O)NCCc4c[nH]c5ccccc45)C[C@@H]32)o1 | – | inconclusive: 2.82 µM [inhibitor, full curve, poor fit] | –
40 | COC1CCOC2(CCN(C(=O)c3ccncc3)CC2)C1 (stereo unspecified) | – | inconclusive: 3.98 µM [inhibitor, single point] | –
41 | COc1cccc(NC(=O)CCC2CCN(C(=O)c3ccccc3)CC2)c1 | inactive: -24.8% | – | –
42 | O=C(c1scc2c1OCCO2)N1CCCC2(CCC(=O)N(C3CC3)C2)C1 (stereo unspecified) | inactive: -8.36% | – | –
43 | COc1cccc(N2C(=O)NC(=NC3CCCCC3)C23CCN(Cc2cccnc2)CC3)c1 | inconclusive: -51.1% [inhibitor] | – | –
44 | COC(=O)c1ccc2nc(C[C@@H]3C[C@@H](C(C)C)[C@H](CNC(=O)C4CCC4)C=C3C)[nH]c2c1 | – | inconclusive: 20 µM [inhibitor, partial curve, poor fit] | –

Row | Compound | activity, negative = inhibition | Potency | outcome
45 | COCCOc1ccnc(-c2noc([C@@H]3CCCN3Cc3cn(C)c4ccccc34)n2)c1 | – | inconclusive: 1.41 µM [inhibitor, full curve, poor fit] | –
46 | COc1ccc(OCc2nc(C3CN(C(=O)CCCc4ccccc4)C3)no2)cc1 | – | inconclusive: 17.8 µM [inhibitor, single point] | –
47 | COc1ccc(CNC(=O)c2cc3c(=O)n(Cc4ccc(OC)cc4)ccc3nc2C)cc1 | – | inconclusive: 8.91 µM [inhibitor, single point] | –
48 | COC(=O)CC1C(=O)NCCN1C(=O)c1ccccc1-c1ncc[nH]1 (stereo unspecified) | inactive: -3.87% | – | –
49 | O=C(NCc1ccccc1)C1CCCN(C2CCN(C(=O)C3CCC3)CC2)C1 (stereo unspecified) | – | inconclusive: 10 µM [inhibitor, single point] | –
50 | CN(CCNC(=O)C1CCN(c2cn[nH]c(=O)c2)C1)C1CCCCC1 (stereo unspecified) | inactive: -23.3% | – | –
51 | CNC(=O)[C@@H]1C[C@@H](n2cc(CN(C)C(=O)c3cc(F)ccc3Cl)nn2)CN1 | – | inconclusive: 0.112 µM [inhibitor, full curve, poor fit] | –
52 | COc1ccc(N2CC(C(=O)N3CCC(C(=O)NCc4cccc(Cl)c4)C3)NC2=O)cc1 (stereo unspecified) | inactive: -14.1% | – | –
53 | COCC1CN(C(C)=O)CC12CCN(Cc1ccccc1C(F)(F)F)CC2 (stereo unspecified) | inactive: -23.9% | – | –
54 | COCCC1(CO)CCCN(CC(=O)NCc2ccccn2)C1 (stereo unspecified) | inactive: -12.6% | – | –
55 | C[C@H](C(=O)N1Cc2ccccc2CC2(CCCN2C)C1)c1ccccc1 (stereo partly specified) | – | inconclusive: 3.98 µM [inhibitor, partial curve, poor fit] | –
56 | COCCN1C(=O)c2ccccc2C(C(=O)Nc2nc3c(s2)CCC3)C12CCCCC2 (stereo unspecified) | – | inconclusive: 5.62 µM [inhibitor, partial curve] | –
57 | COc1ccc(C2Cn3nnc(-c4noc(Cc5ccccc5OC)n4)c3CO2)cc1 (stereo unspecified) | – | inconclusive: 2.82 µM [inhibitor, full curve] | –
58 | O=C1CC(c2ccccc2)N(Cc2ccncc2)CCCN(C(=O)c2cc3ccccc3[nH]2)CCN1 (stereo unspecified) | – | active: 3.55 µM | –
59 | C[C@H]1[C@@H]2[C@@H](O)C([C@H](C)C(=O)NCc3cccs3)CC[C@@]2(C)CC[C@@H]1NC(=O)Cc1ccccc1 (stereo partly specified) | – | inconclusive: 7.94 µM [inhibitor, partial curve] | –
60 | Cc1ccc2ncc(C(=O)c3ccc(C)c(C)c3)c(S(=O)(=O)c3ccccc3)c2c1 | – | inconclusive: 11.2 µM [inhibitor, single point] | –
61 | O=C(Nc1nc2ccccc2n1CCOc1ccccc1Cl)c1ccccc1 | – | inconclusive: 12.6 µM [inhibitor, single point] | –
62 | Cc1cccc(CN2C(=O)c3ccccc3Sc3ccc(C(=O)NCCCN4CCOCC4)cc32)c1 | – | inconclusive: 17.8 µM [inhibitor, single point] | –
63 | COc1ccc(C(=O)NC[C@@H]2CC[C@H]3C[C@@H]2C3(C)C)cc1 | – | inconclusive: 11.2 µM [inhibitor, partial curve, poor fit] | –
64 | O=C(Cn1ncc2c3ccccc3n(Cc3ccccc3)c2c1=O)NCCCN1CCCCC1 | – | inconclusive: 11.2 µM [inhibitor, partial curve, poor fit] | –
65 | Cc1ccc(NC(=O)CSc2nc3n[nH]c(C)c3c(=N)n2-c2ccccc2C)cc1C | – | active: 8.91 µM | –
66 | COc1ccc2[nH]c3c(c2c1)CCNC31CCN(C(=O)c2ccccn2)CC1 | – | inconclusive: 8.91 µM [inhibitor, partial curve, poor fit] | –
